Results: PubChem BioAssay (NCI)
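Protocol summary: plate cells (96-well), add compound at 5 concentrations, incubate 48 h, interpolate endpoints linearly. GI50 = concentration required for 50% inhibition of growth. The concentration for full growth arrest is given as TGI.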

System: NCI-H322M lung
Experiment: inhibition of tumour cell growth, NCI panel, 48 h

## O=C1NC(=S)/C(=C/c2cn(-c3ccccc3)nc2-c2ccccc2)S1
  GI50: 12.8 µM
  TGI: > 100 µM

## COc1cccc(/C=C/C(=O)c2ccc(OC)c(S(N)(=O)=O)c2)c1
  GI50: 3.08 µM
  TGI: 12.4 µM

## O=C(c1ccc(Cl)cc1)C1[C@H](c2ccccc2Cl)[C@@H](c2ccccc2)NC12C(=O)Nc1ccc(Br)cc12 (stereo partly specified)
  GI50: 19.6 µM
  TGI: 53.1 µM
